According to publication PMC11631451:
Results are given in words; binding and its absence hold for the method and conditions named. In cells and extracts the contact can be indirect. Some entries that bind do so weakly or less than the wild type.

Amino acid sequences for entries named in this document (tags omitted). A change or cut given only in a name is not applied to a line headed by its entry.
UniProt O60934: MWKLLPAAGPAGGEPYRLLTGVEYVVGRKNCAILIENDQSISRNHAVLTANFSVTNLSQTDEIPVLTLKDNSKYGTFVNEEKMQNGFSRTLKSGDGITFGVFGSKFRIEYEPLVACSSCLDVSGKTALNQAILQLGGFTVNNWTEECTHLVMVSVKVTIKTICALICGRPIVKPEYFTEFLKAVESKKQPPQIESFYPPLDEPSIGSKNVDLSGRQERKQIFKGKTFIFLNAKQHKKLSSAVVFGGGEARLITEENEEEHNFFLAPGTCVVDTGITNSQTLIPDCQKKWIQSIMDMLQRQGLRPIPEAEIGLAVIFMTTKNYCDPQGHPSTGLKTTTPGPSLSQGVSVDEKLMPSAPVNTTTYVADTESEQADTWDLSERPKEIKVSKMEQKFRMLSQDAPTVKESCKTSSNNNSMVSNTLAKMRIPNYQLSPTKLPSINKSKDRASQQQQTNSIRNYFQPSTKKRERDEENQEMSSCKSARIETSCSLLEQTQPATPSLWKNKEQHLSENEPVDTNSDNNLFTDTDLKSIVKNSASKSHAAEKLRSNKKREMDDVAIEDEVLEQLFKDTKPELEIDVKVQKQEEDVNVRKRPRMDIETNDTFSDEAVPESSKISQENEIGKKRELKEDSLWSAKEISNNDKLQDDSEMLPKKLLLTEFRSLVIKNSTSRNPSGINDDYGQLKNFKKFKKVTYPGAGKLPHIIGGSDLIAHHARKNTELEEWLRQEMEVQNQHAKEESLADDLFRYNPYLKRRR
UniProt P46100: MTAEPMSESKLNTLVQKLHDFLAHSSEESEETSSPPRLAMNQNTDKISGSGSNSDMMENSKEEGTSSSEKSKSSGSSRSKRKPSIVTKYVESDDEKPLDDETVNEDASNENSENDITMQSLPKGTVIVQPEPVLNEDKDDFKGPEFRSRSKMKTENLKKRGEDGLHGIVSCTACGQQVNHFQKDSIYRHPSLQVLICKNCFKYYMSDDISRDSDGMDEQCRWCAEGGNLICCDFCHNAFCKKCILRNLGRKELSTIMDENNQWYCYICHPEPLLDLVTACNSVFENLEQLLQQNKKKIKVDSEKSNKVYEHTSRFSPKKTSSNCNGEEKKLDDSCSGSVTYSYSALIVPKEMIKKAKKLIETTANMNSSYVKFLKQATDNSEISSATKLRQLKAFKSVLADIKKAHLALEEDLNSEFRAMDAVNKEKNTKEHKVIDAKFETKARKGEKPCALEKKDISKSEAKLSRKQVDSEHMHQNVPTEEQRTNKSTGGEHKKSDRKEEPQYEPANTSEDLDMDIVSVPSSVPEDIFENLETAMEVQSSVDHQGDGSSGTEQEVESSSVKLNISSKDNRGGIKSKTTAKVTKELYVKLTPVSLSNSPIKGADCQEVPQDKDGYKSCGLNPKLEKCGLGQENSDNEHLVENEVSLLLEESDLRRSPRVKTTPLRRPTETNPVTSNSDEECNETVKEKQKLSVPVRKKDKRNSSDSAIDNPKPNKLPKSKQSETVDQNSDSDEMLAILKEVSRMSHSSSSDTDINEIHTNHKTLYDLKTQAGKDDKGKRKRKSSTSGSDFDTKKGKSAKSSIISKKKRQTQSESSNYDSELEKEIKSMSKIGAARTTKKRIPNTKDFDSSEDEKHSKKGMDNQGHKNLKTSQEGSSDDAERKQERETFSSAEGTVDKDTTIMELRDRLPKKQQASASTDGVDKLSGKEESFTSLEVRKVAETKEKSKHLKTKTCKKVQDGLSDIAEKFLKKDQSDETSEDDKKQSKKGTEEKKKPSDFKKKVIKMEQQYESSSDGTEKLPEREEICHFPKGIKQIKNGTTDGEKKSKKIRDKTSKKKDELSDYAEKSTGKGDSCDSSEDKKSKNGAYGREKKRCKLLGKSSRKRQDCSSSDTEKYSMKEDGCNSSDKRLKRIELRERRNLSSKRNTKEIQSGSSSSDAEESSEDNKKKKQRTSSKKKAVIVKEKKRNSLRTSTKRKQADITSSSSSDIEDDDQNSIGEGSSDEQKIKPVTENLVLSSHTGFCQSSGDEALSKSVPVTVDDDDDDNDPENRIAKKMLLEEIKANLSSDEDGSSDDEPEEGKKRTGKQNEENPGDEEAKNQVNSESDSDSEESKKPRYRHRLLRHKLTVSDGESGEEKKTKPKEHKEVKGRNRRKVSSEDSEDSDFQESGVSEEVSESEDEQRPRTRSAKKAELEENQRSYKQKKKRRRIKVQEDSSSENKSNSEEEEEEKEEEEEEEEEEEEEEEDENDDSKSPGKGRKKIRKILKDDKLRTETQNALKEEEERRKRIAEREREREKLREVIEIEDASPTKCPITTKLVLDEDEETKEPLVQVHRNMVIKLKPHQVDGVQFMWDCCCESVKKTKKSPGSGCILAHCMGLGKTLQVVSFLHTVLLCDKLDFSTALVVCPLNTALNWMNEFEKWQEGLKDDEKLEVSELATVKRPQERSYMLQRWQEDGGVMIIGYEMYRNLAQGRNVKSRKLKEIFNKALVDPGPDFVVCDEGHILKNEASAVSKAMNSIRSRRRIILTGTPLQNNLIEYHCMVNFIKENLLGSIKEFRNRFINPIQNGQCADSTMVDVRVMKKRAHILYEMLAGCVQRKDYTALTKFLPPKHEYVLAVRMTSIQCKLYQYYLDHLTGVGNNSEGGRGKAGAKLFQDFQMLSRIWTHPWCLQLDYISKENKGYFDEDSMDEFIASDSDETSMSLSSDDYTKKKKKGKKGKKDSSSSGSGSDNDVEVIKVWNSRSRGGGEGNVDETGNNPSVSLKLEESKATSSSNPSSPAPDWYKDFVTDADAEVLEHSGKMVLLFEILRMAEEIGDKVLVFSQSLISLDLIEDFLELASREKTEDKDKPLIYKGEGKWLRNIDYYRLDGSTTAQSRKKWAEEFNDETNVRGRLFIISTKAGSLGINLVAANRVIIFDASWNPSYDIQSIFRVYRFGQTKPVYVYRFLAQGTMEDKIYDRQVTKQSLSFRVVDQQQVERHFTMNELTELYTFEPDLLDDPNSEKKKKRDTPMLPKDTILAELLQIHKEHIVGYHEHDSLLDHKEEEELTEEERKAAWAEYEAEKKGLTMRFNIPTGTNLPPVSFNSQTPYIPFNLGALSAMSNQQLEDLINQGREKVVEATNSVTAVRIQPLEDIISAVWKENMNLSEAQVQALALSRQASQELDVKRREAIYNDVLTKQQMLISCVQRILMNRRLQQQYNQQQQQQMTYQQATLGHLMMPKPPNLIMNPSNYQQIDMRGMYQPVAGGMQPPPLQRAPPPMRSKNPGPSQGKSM
UniProt Q14676: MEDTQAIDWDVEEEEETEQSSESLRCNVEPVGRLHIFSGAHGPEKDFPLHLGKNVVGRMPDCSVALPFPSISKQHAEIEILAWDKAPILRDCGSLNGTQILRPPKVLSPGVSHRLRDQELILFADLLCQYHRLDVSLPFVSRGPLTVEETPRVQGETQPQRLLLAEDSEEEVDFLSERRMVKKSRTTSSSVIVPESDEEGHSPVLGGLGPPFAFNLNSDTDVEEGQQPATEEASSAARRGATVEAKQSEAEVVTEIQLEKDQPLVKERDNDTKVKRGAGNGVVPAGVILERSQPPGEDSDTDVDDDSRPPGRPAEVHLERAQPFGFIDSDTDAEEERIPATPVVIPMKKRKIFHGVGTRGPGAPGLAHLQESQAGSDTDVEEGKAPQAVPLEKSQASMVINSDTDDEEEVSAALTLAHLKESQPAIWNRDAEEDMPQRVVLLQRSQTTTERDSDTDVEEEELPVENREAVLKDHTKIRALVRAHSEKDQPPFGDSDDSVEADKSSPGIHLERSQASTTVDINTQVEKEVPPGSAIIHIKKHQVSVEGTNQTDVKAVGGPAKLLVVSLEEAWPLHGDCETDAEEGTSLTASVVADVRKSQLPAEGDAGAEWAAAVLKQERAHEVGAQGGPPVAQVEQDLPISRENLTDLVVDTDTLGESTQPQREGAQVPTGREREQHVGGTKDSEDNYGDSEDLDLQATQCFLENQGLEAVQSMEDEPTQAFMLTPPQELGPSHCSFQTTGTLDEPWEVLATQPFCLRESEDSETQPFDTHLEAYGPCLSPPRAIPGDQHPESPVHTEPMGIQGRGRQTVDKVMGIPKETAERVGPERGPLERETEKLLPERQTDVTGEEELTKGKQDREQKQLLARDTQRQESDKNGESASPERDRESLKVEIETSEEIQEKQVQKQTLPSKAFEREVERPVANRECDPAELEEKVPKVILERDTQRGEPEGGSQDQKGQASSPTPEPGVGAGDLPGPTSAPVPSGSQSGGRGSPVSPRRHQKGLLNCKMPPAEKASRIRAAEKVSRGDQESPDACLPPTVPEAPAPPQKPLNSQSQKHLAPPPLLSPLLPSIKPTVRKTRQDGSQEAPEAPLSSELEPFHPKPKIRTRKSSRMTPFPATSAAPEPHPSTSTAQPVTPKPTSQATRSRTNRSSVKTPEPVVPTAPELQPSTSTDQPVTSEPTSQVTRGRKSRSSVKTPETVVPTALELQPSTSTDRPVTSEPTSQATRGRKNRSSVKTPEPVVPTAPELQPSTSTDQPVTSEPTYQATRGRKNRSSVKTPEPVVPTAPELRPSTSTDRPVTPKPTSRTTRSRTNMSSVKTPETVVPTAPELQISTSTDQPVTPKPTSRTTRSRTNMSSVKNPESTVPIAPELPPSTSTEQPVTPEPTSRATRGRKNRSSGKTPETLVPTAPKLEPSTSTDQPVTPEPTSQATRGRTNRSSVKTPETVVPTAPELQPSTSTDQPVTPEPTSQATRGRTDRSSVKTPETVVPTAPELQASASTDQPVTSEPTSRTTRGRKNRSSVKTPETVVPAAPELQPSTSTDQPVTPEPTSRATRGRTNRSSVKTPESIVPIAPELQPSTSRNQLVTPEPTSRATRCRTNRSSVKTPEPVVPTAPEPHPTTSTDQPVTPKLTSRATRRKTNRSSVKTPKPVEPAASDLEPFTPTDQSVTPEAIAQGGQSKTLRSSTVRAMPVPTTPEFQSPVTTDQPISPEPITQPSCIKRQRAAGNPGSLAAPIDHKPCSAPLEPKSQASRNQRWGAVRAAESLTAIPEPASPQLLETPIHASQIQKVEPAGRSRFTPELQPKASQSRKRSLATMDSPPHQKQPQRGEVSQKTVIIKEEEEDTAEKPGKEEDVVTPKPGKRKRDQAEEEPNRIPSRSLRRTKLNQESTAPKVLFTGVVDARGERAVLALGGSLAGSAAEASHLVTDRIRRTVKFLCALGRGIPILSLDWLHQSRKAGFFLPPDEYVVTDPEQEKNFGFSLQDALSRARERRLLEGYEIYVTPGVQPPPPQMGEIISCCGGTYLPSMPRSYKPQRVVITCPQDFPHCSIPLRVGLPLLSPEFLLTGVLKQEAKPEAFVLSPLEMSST

B1: MRE11, P49959 1-708 (protein)
chain: MSTADALDDENTFKILVATDIHLGFMEKDAVRGNDTFVTLDEILRLAQENEVDFILLGGDLFHENKPSRKTLHTCLELLRKYCMGDRPVQFEILSDQSVNFGFSKFPWVNYQDGNLNISIPVFSIHGNHDDPTGADALCALDILSCAGFVNHFGRSMSVEKIDISPVLLQKGSTKIALYGLGSIPDERLYRMFVNKKVTMLRPKEDENSWFNLFVIHQNRSKHGSTNFIPEQFLDDFIDLVIWGHEHECKIAPTKNEQQLFYISQPGSSVVTSLSPGEAVKKHVGLLRIKGRKMNMHKIPLHTVRQFFMEDIVLANHPDIFNPDNPKVTQAIQSFCLEKIEEMLENAERERLGNSHQPEKPLVRLRVDYSGGFEPFSVLRFSQKFVDRVANPKDIIHFFRHREQKEKTGEEINFGKLITKPSEGTTLRVEDLVKQYFQTAEKNVQLSLLTERGMGEAVQEFVDKEEKDAIEELVKYQLEKTQRFLKERHIDALEDKIDEEVRRFRETRQKNTNEEDDEVREAMTRARALRSQSEESASAFSADDLMSIDLAEQMANDSDDSISAATNKGRGRGRGRRGGRGQNSASRGGSQRGRADTGLETSTRSRNSKTAVSASRNMSIIDAFKSTRQQPSRNVTTKNYSEVIEVDESDVEEDIFPTTSKTDQRWSSTSSSKIMSQSQVSKGVDFESSEDDDDDPFMNTSSLRRNRR
B2: RAD50, Q92878 1-1312 (protein)
chain: MSRIEKMSILGVRSFGIEDKDKQIITFFSPLTILVGPNGAGKTTIIECLKYICTGDFPPGTKGNTFVHDPKVAQETDVRAQIRLQFRDVNGELIAVQRSMVCTQKSKKTEFKTLEGVITRTKHGEKVSLSSKCAEIDREMISSLGVSKAVLNNVIFCHQEDSNWPLSEGKALKQKFDEIFSATRYIKALETLRQVRQTQGQKVKEYQMELKYLKQYKEKACEIRDQITSKEAQLTSSKEIVKSYENELDPLKNRLKEIEHNLSKIMKLDNEIKALDSRKKQMEKDNSELEEKMEKVFQGTDEQLNDLYHNHQRTVREKERKLVDCHRELEKLNKESRLLNQEKSELLVEQGRLQLQADRHQEHIRARDSLIQSLATQLELDGFERGPFSERQIKNFHKLVRERQEGEAKTANQLMNDFAEKETLKQKQIDEIRDKKTGLGRIIELKSEILSKKQNELKNVKYELQQLEGSSDRILELDQELIKAERELSKAEKNSNVETLKMEVISLQNEKADLDRTLRKLDQEMEQLNHHTTTRTQMEMLTKDKADKDEQIRKIKSRHSDELTSLLGYFPNKKQLEDWLHSKSKEINQTRDRLAKLNKELASSEQNKNHINNELKRKEEQLSSYEDKLFDVCGSQDFESDLDRLKEEIEKSSKQRAMLAGATAVYSQFITQLTDENQSCCPVCQRVFQTEAELQEVISDLQSKLRLAPDKLKSTESELKKKEKRRDEMLGLVPMRQSIIDLKEKEIPELRNKLQNVNRDIQRLKNDIEEQETLLGTIMPEEESAKVCLTDVTIMERFQMELKDVERKIAQQAAKLQGIDLDRTVQQVNQEKQEKQHKLDTVSSKIELNRKLIQDQQEQIQHLKSTTNELKSEKLQISTNLQRRQQLEEQTVELSTEVQSLYREIKDAKEQVSPLETTLEKFQQEKEELINKKNTSNKIAQDKLNDIKEKVKNIHGYMKDIENYIQDGKDDYKKQKETELNKVIAQLSECEKHKEKINEDMRLMRQDIDTQKIQERWLQDNLTLRKRNEELKEVEEERKQHLKEMGQMQVLQMKSEHQKLEENIDNIKRNHNLALGRQKGYEEEIIHFKKELREPQFRDAEEKYREMMIVMRTTELVNKDLDIYYKTLDQAIMKFHSMKMEEINKIIRDLWRSTYRGQDIEYIEIRSDADENVSASDKRRNYNYRVVMLKGDTALDMRGRCSAGQKVLASLIIRLALAETFCLNCGIIALDEPTTNLDRENIESLAHALVEIIKSRSQQRNFQLLVITHDEDFVELLGRSEYVEKFYRIKKNIDQCSEIVKCSVSSLGFNVH

Assays:
[1] = biological target: YFP-NBS1[K160M] (UniProt O60934); assay: co-IP; YFP-pulldown (reverse pulldown): lysates of HEK-293FT cells transfected with YFP-NBS1 wild type, R28A or K160M, Benzonase-treated, on GFP-trap magnetic agarose beads 2 h at 4°C; endogenous partners detected by immunoblot
[2] = biological target: YFP-NBS1[R28A] (UniProt O60934); assay: as above
[3] = biological target: YFP-NBS1[WT] (UniProt O60934); assay: as above
[4] = biological target: GFP-tagged ATRX (GFP-ATRX WT) (UniProt P46100); assay: co-IP; GFP-pulldown: lysates of HEK-293FT cells transfected with GFP-ATRX constructs, Benzonase-treated, on GFP-trap magnetic agarose beads 2 h at 4°C, four washes with IP lysis buffer; endogenous partners detected by immunoblot
[5] = biological target: GFP-tagged ATRX (GFP-ATRX WT), P46100; assay: as above; settings: remark: other sources report otherwise

Row | Molecule | binding [1] | binding [2] | binding [3] | binding [4] | binding [5]
1 | ATRX (endogenous) (from UniProt P46100 1-2492) | no binding | no binding | binds | – | –
2 | MDC1 (from UniProt Q14676 1-2089) | no binding | no binding | binds | – | –
3 | NBS1 (from UniProt O60934 1-754) | – | – | – | binds | –
4 | B1 | – | – | – | – | binds
5 | B2 | – | – | – | – | binds
